Measurements: patent US20150037339A1 (Regeneron, published 2015)

T1: Activin A (homodimer of two inhibin βA subunits; R&D Systems, #338-AC) (human, UniProt P08476 311-426)
T1 construct: Bought protein; also called inhibin-βA dimer
T1 sequence: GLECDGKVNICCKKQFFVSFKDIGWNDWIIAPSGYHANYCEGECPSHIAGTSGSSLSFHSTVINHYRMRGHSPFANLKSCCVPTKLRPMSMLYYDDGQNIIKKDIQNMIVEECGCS

T2: BMP10 (human, UniProt O95393 317-424)
T2 sequence (looked up): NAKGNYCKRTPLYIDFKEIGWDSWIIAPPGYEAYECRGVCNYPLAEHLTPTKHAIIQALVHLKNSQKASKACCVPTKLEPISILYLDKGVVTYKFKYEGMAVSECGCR

T3: BMP9 (human, UniProt Q9UK05 320-429)
T3 sequence (looked up): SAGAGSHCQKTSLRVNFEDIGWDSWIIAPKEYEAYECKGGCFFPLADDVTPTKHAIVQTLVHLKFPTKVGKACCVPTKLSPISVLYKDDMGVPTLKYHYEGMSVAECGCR

B1: human ActRIIA expressed with a C-terminal human Fc tag (hActRIIA-Fc; R&D Systems, #340-R[…]) (Fc fusion)
chain: not shown
notes: Bought; also called hActRIIA-hFc; not shown: C-terminal human Fc tag
B2: Control 4 (Activin Type IIB receptor-Fc fusion molecule; soluble Activin RIIB receptor extracellular domain E23-P133 of NP-001097, Gly-Ser linker, C-terminal … (Fc fusion)
chain: EAETRECIYYNANWELERTNQSGLERCEGEQDKRLHCYASWANSSGTIELVKKGCWLDDFNCYDRQECVATEENPQVYFCCCEGNFCNERFTHLPEAGGPEVTYEPPPTAPSG[omitted - human IgG1 Fc]
notes: also called hActRIIB-hFc; ActRIIB-hFc

Legend:
[1] = molecular target: T1, Activin A (homodimer of two inhibin βA …); experiment: SPR blocking: 5 nM Activin A + 30 nM binder over Follistatin-288 surface
Description: (§1) The binding signal (RU) was measured at 150 seconds after the start of the injection, and this signal was subtracted by the measured RU value for a negative control reference surface to determine the specific binding signal.

[2] = molecular target: T1, Activin A (homodimer of two inhibin βA …); experiment: SPR blocking: 5 nM Activin A + 15 nM binder over hActRIIA-hFc surface
Description: as §1

[3] = molecular target: T1, Activin A (homodimer of two inhibin βA …); experiment: SPR blocking: 5 nM Activin A + 60 nM binder over Follistatin-288 surface
Description: as §1

[4] = molecular target: T1, Activin A (homodimer of two inhibin βA …); experiment: SPR blocking: 5 nM Activin A + 7.5 nM binder over Follistatin-288 surface
Description: as §1

[5] = molecular target: T1, Activin A (homodimer of two inhibin βA …); experiment: SPR blocking: 5 nM Activin A + 0 nM binder over Follistatin-288 surface
Description: as §1

[6] = molecular target: T1, Activin A (homodimer of two inhibin βA …); experiment: SPR blocking: 5 nM Activin A + 60 nM binder over hActRIIB-hFc (Control 4) surface
Description: as §1

[7] = molecular target: T1, Activin A (homodimer of two inhibin βA …); experiment: SPR blocking: 5 nM Activin A + 1.88 nM binder over hActRIIA-hFc surface
Description: as §1

[8] = molecular target: T1, Activin A (homodimer of two inhibin βA …); experiment: SPR blocking: 5 nM Activin A + 7.50 nM binder over hActRIIB-hFc (Control 4) surface
[9] = molecular target: T1, Activin A (homodimer of two inhibin βA …); experiment: SPR blocking: 5 nM Activin A + 60 nM binder over hActRIIA-hFc surface
Description: as §1

[10] = molecular target: T1, Activin A (homodimer of two inhibin βA …); experiment: SPR blocking: 5 nM Activin A + 3.75 nM binder over hActRIIB-hFc (Control 4) surface
Description: as §1

[11] = molecular target: T1, Activin A (homodimer of two inhibin βA …); experiment: SPR blocking: 5 nM Activin A + 15 nM binder over hActRIIB-hFc (Control 4) surface
[12] = molecular target: T1, Activin A (homodimer of two inhibin βA …); experiment: SPR blocking: 5 nM Activin A + 1.88 nM binder over Follistatin-288 surface
Description: as §1

[13] = molecular target: T1, Activin A (homodimer of two inhibin βA …); experiment: SPR blocking: 5 nM Activin A + 3.75 nM binder over hActRIIA-hFc surface
Description: as §1

[14] = molecular target: T1, Activin A (homodimer of two inhibin βA …); experiment: SPR blocking: 5 nM Activin A + 1.88 nM binder over hActRIIB-hFc (Control 4) surface
Description: as §1

[15] = molecular target: T1, Activin A (homodimer of two inhibin βA …); experiment: SPR blocking: 5 nM Activin A + 0.94 nM binder over hActRIIA-hFc surface
Description: as §1

[16] = molecular target: T1, Activin A (homodimer of two inhibin βA …); experiment: SPR blocking: 5 nM Activin A + 0.00 nM binder over hActRIIA-hFc surface
Description: as §1

[17] = molecular target: T1, Activin A (homodimer of two inhibin βA …); experiment: SPR blocking: 5 nM Activin A + 3.75 nM binder over Follistatin-288 surface
Description: as §1

[18] = molecular target: T1, Activin A (homodimer of two inhibin βA …); experiment: SPR blocking: 5 nM Activin A + 15 nM binder over Follistatin-288 surface
Description: as §1

[19] = molecular target: T1, Activin A (homodimer of two inhibin βA …); experiment: SPR blocking: 5 nM Activin A + 30 nM binder over hActRIIA-hFc surface
Description: as §1

[20] = molecular target: T1, Activin A (homodimer of two inhibin βA …); experiment: SPR blocking: 5 nM Activin A + 0.94 nM binder over hActRIIB-hFc (Control 4) surface
[21] = molecular target: T1, Activin A (homodimer of two inhibin βA …); experiment: SPR blocking: 5 nM Activin A + 0.94 nM binder over Follistatin-288 surface
Description: as §1

[22] = molecular target: T1, Activin A (homodimer of two inhibin βA …); experiment: SPR blocking: 5 nM Activin A + 30 nM binder over hActRIIB-hFc (Control 4) surface
Description: as §1

[23] = molecular target: T1, Activin A (homodimer of two inhibin βA …); experiment: SPR blocking: 5 nM Activin A + 0.00 nM binder over hActRIIB-hFc (Control 4) surface
Description: as §1

[24] = molecular target: T1, Activin A (homodimer of two inhibin βA …); experiment: SPR blocking: 5 nM Activin A + 7.50 nM binder over hActRIIA-hFc surface
Description: as §1

BMP10 = molecular target: T2, BMP10; experiment: cell-based or functional assay
BMP9 = molecular target: T3, BMP9; experiment: cell-based or functional assay

Row | Binder | % bound RU w/no inhibitor [1] [%] | % bound RU w/no inhibitor [2] [%] | % bound RU w/no inhibitor [3] [%] | % bound RU w/no inhibitor [4] [%] | % bound RU w/no inhibitor [5] [%] | % bound RU w/no inhibitor [6] [%] | % bound RU w/no inhibitor [7] [%] | % bound RU w/no inhibitor [8] [%] | % bound RU w/no inhibitor [9] [%] | % bound RU w/no inhibitor [10] [%] | % bound RU w/no inhibitor [11] [%] | % bound RU w/no inhibitor [12] [%] | % bound RU w/no inhibitor [13] [%] | % bound RU w/no inhibitor [14] [%] | % bound RU w/no inhibitor [15] [%] | % bound RU w/no inhibitor [16] [%] | % bound RU w/no inhibitor [17] [%] | % bound RU w/no inhibitor [18] [%] | % bound RU w/no inhibitor [19] [%] | % bound RU w/no inhibitor [20] [%] | other results
1 | B1 | 11 | 50 | 13 | 116 | 100 | 5 | 222 | 113 | 3 | 127 | 56 | 148 | 188 | 129 | 236 | 100 | 138 | 60 | 5 | 131 | % bound RU w/no inhibitor [21]: 156%; % bound RU w/no inhibitor [22]: 5%; % bound RU w/no inhibitor [23]: 100%; % bound RU w/no inhibitor [24]: 128%
2 | B2 | 1 | 51 | 1 | 120 | 100 | 2 | 266 | 130 | 1 | 144 | 51 | 163 | 231 | 148 | 276 | 100 | 151 | 43 | 2 | 149 | IC50 [M]; inhibition of 4 nM BMP10 in W-20-17/BRE-luc cells (BMP10): 1e-09 M; IC50 [M]; inhibition of 800 pM BMP9 in W-20-17/BRE-luc cells (BMP9): 2e-09 M; % bound RU w/no inhibitor [21]: 169%; % bound RU w/no inhibitor [22]: 3%; % bound RU w/no inhibitor [23]: 100%; % bound RU w/no inhibitor [24]: 160%
